In paper PMC11930357, “A dynamic structural unit of phase-separated heterochromatin protein 1α as revealed by integrative structural analyses” (Nucleic Acids Research, 2025):

Biological target: the molecule itself
Assay: SEC-MALS; Superdex 200 Increase, 20 mM sodium phosphate pH 7.0, 1 mM DTT, 50 mM NaCl; loading 249 μM HP1α, 307 μM pHP1α; other loading concentrations in Supplementary Fig. S3A

Protein	stoichiometry N
Full-length HP1α_Ser97Ala (heterochromatin protein 1α), unphosphorylated (natural protein, heterochromatin protein 1α (HP1α), human, full length with Ser97Ala; Expressed from a modified pET15b with a PreScission site; His-tag cut by HRV3C protease; also called HP1α_S97A; source: E. coli BL21 (DE3) star, purified (Ni Sepharose, HiTrap Heparin, Superdex 200)) not shown	2
Full-length HP1α_Ser97Ala phosphorylated at Ser11, Ser12, Ser13 and Ser14 (natural protein, phosphoserine at Ser11, Ser12, Ser13 and Ser14, heterochromatin protein 1α (HP1α), human, full length with Ser97Ala; Phosphorylation of the four serines confirmed by MALDI-TOF where necessary; also called pHP1α; pHP1α_S97A; source: E. coli BL21 (DE3) star, co-expressed with CK2 (pRSFduet), purified (Ni Sepharose, HiTrap Heparin, Superdex 200)) not shown	2
